# Data reported in PubChem BioAssay AID588855 (National Center for Advancing Translational Sciences (NCATS), 2011).
# The campaign covered roughly 410,000 compounds. About 5,000 (1.2%) were called active. This list was built around the results that the source calls inconclusive (neither active nor inactive); the mix of calls is not that of the screen. Calls come from the whole dose curve; as a rule, active = well fitted inhibition curve with a large enough effect; inconclusive = small, poorly fitted or top-dose-only effect; inactive = no such curve, though single readings can be large or run the other way. Potencies of inconclusive entries are doubtful fits and often do not repeat.
# Assay: qHTS for Inhibitors of TGF-b; note: nearly all actives have a fitted effect of over 65% in size
# Details: HepG2 CAGA-GFP TGF-b/SMAD3 reporter, GFP fluorescence, 18 h, TGF-beta stimulated, 500 pg/mL final; series mostly up to 46.1 µM
# How it was run: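 HEPG2 CAGA-GFP reporter cells (1000/well, DMEM with 1% FBS) received compounds, then recombinant TGF-beta at 500 pg/mL final for 18 hours at 37 degrees C. Per-cell GFP summed per well was normalised to unstimulated and stimulated DMSO controls before curve fitting.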
# Potency is the fitted concentration of half-maximal effect; tags give direction and shape of the fitted curve.
row,SMILES,Potency
1,O=S(=O)(Nc1ncnc2scc(-c3ccc(F)cc3)c12)c1cc(F)ccc1F,"inconclusive: 35.5 µM [inhibitor, single point]"
2,Cc1cc(C)c(S(=O)(=O)N/N=C/c2ccc3c(c2)OCO3)c(C)c1,inactive
3,O=C(Nc1ccccc1)C(Cc1ccccc1)c1ccccc1 (stereo not given),"inconclusive: 35.5 µM [inhibitor, single point]"
4,CCC(CC)c1nc(C#N)c(NCc2ccccc2)o1,"inconclusive: 11.2 µM [inhibitor, single point]"
5,COc1ccc([C@H]2[C@H]3C=CC[C@@H](C)[C@@H]3C(=O)N2Cc2ccccc2)cc1Cl,"inconclusive: 8.91 µM [inhibitor, partial curve]"
6,Cc1cc(F)ccc1S(=O)(=O)NCC(c1ccco1)S(=O)(=O)c1cccs1 (stereo not given),"inconclusive: 7.94 µM [inhibitor, partial curve, poor fit]"
7,O=C(/C=C/c1ccc(O)cc1)c1ccc(O)cc1O,"inconclusive: 20 µM [inhibitor, partial curve, poor fit]"
8,C[C@@H]1CN([C@H](C)CO)S(=O)(=O)c2ccc(C#C[C@@H](C)O)cc2O[C@@H]1CN(C)Cc1ccc(-c2ccccc2)cc1,"inconclusive: 12.6 µM [inhibitor, partial curve, poor fit]"
9,CCOc1ccc(NC(=S)N2CCC(c3ccc(C)cc3)C2)cc1 (stereo not given),"inconclusive: 14.1 µM [inhibitor, partial curve, poor fit]"
10,COCCCNC(=O)c1oc2c(c1C)-c1nn(Cc3cccc(Cl)c3)cc1CC2,inactive
11,COc1ccccc1N1CCN(C(=O)c2nn(-c3ccc(C)cc3)c(=O)n(C)c2=O)CC1,inactive
12,CC(C)CCNC(=O)c1nnc(Cc2ccc(Cl)cc2)o1,"inconclusive: 22.4 µM [inhibitor, single point]"
13,Cc1ccc(C)c(OCC(O)CN2CCC(CN3C(=O)c4cccc5cccc(c45)C3=O)CC2)c1 (stereo not given),"inconclusive: 6.31 µM [inhibitor, single point]"
14,CCCCN1C(=O)c2ccc(C(=O)Nc3c(N)n(CCCC)c(=O)n(C)c3=O)cc2C1=O,"inconclusive: 3.55 µM [inhibitor, partial curve, poor fit]"
15,CCOc1ccc(Nc2nc3ccccc3c(=O)s2)cc1,inactive
16,COc1cc(N(C)C)c(OC)cc1/C=C/c1ccnc2ccccc12,inactive
17,CCOC(=O)C(=Nc1ccccc1)NO,"inconclusive: 3.98 µM [inhibitor, full curve, poor fit]"
18,CC1C(c2ccccc2)N(C)C(c2ccccc2)CC1(O)c1ccc(F)cc1 (stereo not given),"inconclusive: 35.5 µM [inhibitor, single point]"
19,COc1cccc(N(CC(=O)Nc2cccc(N(C)S(C)(=O)=O)c2)S(C)(=O)=O)c1,"inconclusive: 0.112 µM [inhibitor, full curve, poor fit]"
20,CCOC(=O)c1cnc2ccc(C)cc2c1Sc1ccc(F)cc1,"inconclusive: 35.5 µM [inhibitor, single point]"

row,SMILES,Potency
1,Cc1sc2nc(CN(Cc3ccccc3)C(=O)NC3CCCCC3)[nH]c(=O)c2c1C,"inconclusive: 14.1 µM [inhibitor, single point]"
2,CCN1CCN(CCCNC(=O)c2cc3c(=O)n(C)c4ccccc4c3s2)CC1,inactive
3,Cc1ccc(Nc2nc(-c3sc(NC(=O)c4ccco4)nc3C)cs2)cc1,"inconclusive: 12.6 µM [inhibitor, single point]"
4,CCc1ccccc1N=C1S/C(=C/c2ccccc2OCC(=O)N2CCOCC2)C(=O)N1C,"inconclusive: 25.1 µM [inhibitor, single point]"
5,CCOC(=O)c1sc(NC(=O)Nc2ccc(Cl)cc2)nc1C,"inconclusive: 11.2 µM [inhibitor, single point]"
6,O=C(COc1ccccc1Cl)NCC1(N2CCOCC2)CCCCC1,"inconclusive: 15.8 µM [inhibitor, partial curve]"
7,CCCCCCC(=O)N(O)C1CC(=O)N(c2ccc(F)cc2)C1=O (stereo not given),active: 17.8 µM
8,COc1cccc(/C=C(/C(=O)OCC(=O)NC2CCCC(C)C2C)c2ccccc2)c1 (stereo not given),"inconclusive: 35.5 µM [inhibitor, single point]"
9,CCN(CC)C(=O)CSC1=N/C(=C/c2ccco2)C(=O)N1c1ccc(OC)c(Cl)c1,"inconclusive: 3.98 µM [inhibitor, single point]"
10,Cn1c2c(c(=O)n(C)c1=O)C(C(F)(F)F)(C(F)(F)F)N=C(c1ccc(Cl)cc1)N2,active: 1.78 µM
11,O=C(/C(=N/N=C/c1ccc(O)c(O)c1)c1ccccc1)c1ccccc1,"inconclusive: 14.1 µM [inhibitor, single point]"
12,C[C@@]12C(=O)N(c3ccc(F)cc3)C(=O)N1[C@@H]1c3ccccc3OC[C@@H]1[C@H]2c1ccccc1,inactive
13,COc1ccc(-c2ccccc2[C@H]2[C@@H]3C=CC[C@@H](C)[C@@H]3C(=O)N2Cc2ccccc2)cc1,"inconclusive: 35.5 µM [inhibitor, single point]"
14,Cc1ccccc1-c1nc(CS(=O)(=O)CC(=O)NCC(C)c2ccccc2)c(C)o1 (stereo not given),"inconclusive: 5.01 µM [inhibitor, partial curve, poor fit]"
15,CCOc1cc(/C=C\[N+](=O)[O-])ccc1OCC(=O)N1CCOCC1,"inconclusive: 15.8 µM [inhibitor, single point]"
16,COc1ccc2oc(C(=O)NN3C(C)CCCC3C)c(C)c2c1 (stereo not given),inactive
17,Cc1[nH]c2ccccc2c1C(=O)CN1CCCC(C)C1 (stereo not given),"inconclusive: 3.55 µM [inhibitor, single point]"
18,CCc1ccc2nc(N(CCCN(C)C)C(=O)c3ccc(S(=O)(=O)N4CCCc5ccccc54)cc3)sc2c1,"inconclusive: 35.5 µM [inhibitor, single point]"
19,CC(C)(Oc1ccc(Cl)cc1)C(=O)NC1=NN(c2ccccc2)C(=O)C1,"inconclusive: 35.5 µM [inhibitor, single point]"
20,O=C(CSCc1ccccc1Cl)N1CCN(c2ccc(F)cc2)CC1,"inconclusive: 25.1 µM [inhibitor, single point]"
